Results reported in PubChem BioAssay AID212 (DTP/NCI, 2004).
Results filed as inconclusive are left out. The source holds more than one record for some entries. This list holds those alone. The source may hold further records. The values listed for one entry are repeated measurements (runs, samples, wells, individuals or studies).

System: BDF1 mice, colon carcinoma 38 sc, T/C %
Assay: NCI In Vivo Anticancer Drug Screen. Data for tumor model Colon Carcinoma 38 (subcutaneous) in B6D2F1 (BDF1) mice
Details: endpoint: median tumor weight (est.), higher = larger tumour
Summary of the method: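 T/C readout: treated group (T) measurement over vehicle control group (C) measurement. Endpoint is survival or tumor size in mice bearing a transplanted tumor.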

[1] = dose: 25.0 mg/kg/injection, schedule: Q07DX002 (ip), vehicle: saline
[2] = dose: 100.0 mg/kg/injection, schedule: Q07DX002 (ip), vehicle: saline
[3] = dose: 100.0 mg/kg/injection, schedule: Q07DX002 (ip), vehicle: saline with Tween-80
[4] = dose: 200.0 mg/kg/injection, schedule: Q07DX002 (ip), vehicle: saline
[5] = dose: 400.0 mg/kg/injection, schedule: Q07DX002 (ip), vehicle: saline
[6] = dose: 25.0 mg/kg/injection, schedule: Q07DX002 (ip), vehicle: Klucel (hydroxypropylcellulose) (HPC)
[7] = dose: 50.0 mg/kg/injection, schedule: Q07DX003 (ip), vehicle: Klucel (hydroxypropylcellulose) (HPC)
[8] = dose: 25.0 mg/kg/injection, schedule: Q07DX002 (ip), vehicle: saline with Tween-80
[9] = dose: 4.0 mg/kg/injection, schedule: Q07DX002 (ip), vehicle: saline

C[n+]1c(-c2cccc(OCCOCCOc3cccc(-c4c5cc(N)ccc5c5ccc(N)cc5[n+]4C)c3)c2)c2cc(N)ccc2c2ccc(N)cc21
T/C (dose: 2.0 mg/kg/injection, schedule: Q07DX002 (ip), vehicle: water): 62 % of control and 91 % of control
T/C (dose: 8.0 mg/kg/injection, schedule: Q07DX002 (ip), vehicle: water): 52 % of control, 73 % of control, 122 % of control
T/C (dose: 16.0 mg/kg/injection, schedule: Q07DX002 (ip), vehicle: water): 44 % of control, 64 % of control, 75 % of control

Nc1ccc(Cn2ccc3c4c(N)nc(N)nc4ccc32)cc1
T/C (dose: 5.0 mg/kg/injection, schedule: Q07DX002 (ip), vehicle: saline with Tween-80): 60 % of control and 93 % of control
T/C (dose: 10.0 mg/kg/injection, schedule: Q07DX002 (ip), vehicle: saline with Tween-80): 51 % of control and 96 % of control
T/C (dose: 20.0 mg/kg/injection, schedule: Q07DX002 (ip), vehicle: saline with Tween-80): 60 % of control and 93 % of control

CC1(C)N=C(N)N=C(N)N1c1ccc(CCCCc2ccc(S(=O)(=O)F)cc2Cl)c(Cl)c1
T/C (dose: 12.5 mg/kg/injection, schedule: Q07DX002 (ip), vehicle: saline): 62 % of control, 80 % of control, 157 % of control
T/C [1]: 62 % of control, 80 % of control, 188 % of control
T/C [2]: 42 % of control, 51 % of control, 72 % of control

O=NNc1ccccn1
T/C [1]: 75 % of control and 111 % of control

[N-]=[N+]=CC(=O)CCC(N)C(=O)O (centres undefined)
T/C (dose: 3.12 mg/kg/injection, schedule: Q07DX003 (ip), vehicle: saline): 36 % of control, 90 % of control, 94 % of control

C/C(=N\NC(N)=O)c1cccc(/C(C)=N/NC(N)=O)n1
T/C [3]: 46 % of control and 96 % of control

N=C(N)SCc1cccc2c(=O)cc(-c3ccccc3)oc12
T/C (dose: 50.0 mg/kg/injection, schedule: Q07DX002 (ip), vehicle: saline): 49 % of control, 88 % of control, 100 % of control
T/C [2]: 33 % of control, 41 % of control, 112 % of control
T/C [4]: 23 % of control, 74 % of control, 78 % of control
T/C [5]: 36 % of control, 76 % of control, 81 % of control

Cc1ccc2c(ccc(CC(=S)[S-])[n+]2C)c1
T/C (dose: 12.5 mg/kg/injection, schedule: Q07DX002 (ip), vehicle: Klucel (hydroxypropylcellulose) (HPC)): 85 % of control and 114 % of control
T/C [6]: 79 % of control and 187 % of control

N#CCCN(C(=S)Nc1cccc(C(F)(F)F)c1)C1CCCCC1
T/C [6]: 54 % of control and 88 % of control
T/C (dose: 100.0 mg/kg/injection, schedule: Q07DX002 (ip), vehicle: Klucel (hydroxypropylcellulose) (HPC)): 69 % of control, 77 % of control, 114 % of control
T/C (dose: 400.0 mg/kg/injection, schedule: Q07DX002 (ip), vehicle: Klucel (hydroxypropylcellulose) (HPC)): 36 % of control, 64 % of control, 68 % of control

CCCCC(C)(C(=O)OCC)C(=O)OCC
T/C (dose: 12.5 mg/kg/injection, schedule: Q07DX003 (ip), vehicle: Klucel (hydroxypropylcellulose) (HPC)): 78 % of control and 116 % of control
T/C [7]: 66 % of control and 92 % of control
T/C (dose: 100.0 mg/kg/injection, schedule: Q07DX003 (ip), vehicle: Klucel (hydroxypropylcellulose) (HPC)): 66 % of control and 96 % of control

O=C(O)c1ccc(C(=O)O)c(C(=O)O)c1.[NH-]C1CCCCC1[NH-].[Pt+2]
T/C (dose: 12.5 mg/kg/injection, schedule: Q07DX002 (ip), vehicle: sodium bicarbonate): 39 % of control, 66 % of control, 98 % of control

CC(=O)OCC(=O)[C@@]12OC(C)(C)O[C@@H]1C[C@H]1[C@@H]3CC(C=O)=C4C=C(OCCCl)CC[C@]4(C)[C@@]3(F)[C@@H](O)C[C@@]12C
T/C [7]: 74 % of control and 116 % of control

COC1=C(OC)C(=O)C(Sc2ccc3ccccc3c2)=CC1=O
T/C [8]: 53 % of control and 115 % of control

O=C1NC(=O)C2C3C=CC(C12)C1C2C(=O)NC(=O)C2C31 (centres undefined)
T/C (dose: 50.0 mg/kg/injection, schedule: Q07DX002 (ip), vehicle: saline with Tween-80): 30 % of control and 89 % of control
T/C [3]: 64 % of control, 77 % of control, 101 % of control
T/C (dose: 200.0 mg/kg/injection, schedule: Q07DX002 (ip), vehicle: saline with Tween-80): 22 % of control, 34 % of control, 67 % of control

Cc1cc2nc3c(=O)[nH]c(=O)nc-3n(CC(O)C(O)C(O)C(O)CO)c2cc1C (centres undefined)
T/C (dose: 50.0 mg/kg/injection, schedule: Q07DX002 (ip), vehicle: suspension in saline): 66 % of control and 107 % of control
T/C (dose: 200.0 mg/kg/injection, schedule: Q07DX002 (ip), vehicle: suspension in saline): 82 % of control and 115 % of control
T/C (dose: 400.0 mg/kg/injection, schedule: Q07DX002 (ip), vehicle: suspension in saline): 75 % of control and 108 % of control

O=NN(CCF)C(=O)NC1CCCCC1
T/C [6]: 49 % of control and 76 % of control

COC1CC(CC2CCC(C)C(C(C)C(=O)O)O2)OC2(OC(C)(C3CCC(C)(C4OC(C5OC(O)(CO)C(C)CC5C)CC4C)O3)CC2C)C1C (centres undefined)
T/C (dose: 0.63 mg/kg/injection, schedule: Q07DX002 (ip), vehicle: Klucel (hydroxypropylcellulose) (HPC)): 74 % of control and 104 % of control

O=c1cnn(C2OC(CO)C(O)C2O)c(=O)[nH]1 (centres undefined)
T/C [2]: 57 % of control and 110 % of control
T/C [4]: 11 % of control, 81 % of control, 85 % of control
T/C [5]: 61 % of control, 66 % of control, 107 % of control
T/C (dose: 800.0 mg/kg/injection, schedule: Q07DX002 (ip), vehicle: saline): 15 % of control, 85 % of control, 94 % of control
T/C (dose: 1600.0 mg/kg/injection, schedule: Q07DX002 (ip), vehicle: saline): 59 % of control, 103 % of control, 157 % of control
T/C (dose: 3200.0 mg/kg/injection, schedule: Q07DX002 (ip), vehicle: saline): 55 % of control, 71 % of control, 95 % of control

CNc1cccnc1/C=N/NC(N)=S
T/C [3]: 66 % of control and 95 % of control

[Cl][Pt+2][Cl].[NH-]C1CCC1.[NH2-]
T/C (dose: 6.0 mg/kg/injection, schedule: Q07DX002 (ip), vehicle: saline): 52 % of control and 100 % of control

CC[C@H](CC[C@@H](C)C1CC[C@H]2[C@@H]3CC=C4C[C@@H](OP(=O)(N5CC5)N5CC5)CC[C@]4(C)[C@H]3CC[C@]12C)C(C)C (some centres undefined)
T/C (dose: 12.5 mg/kg/injection, schedule: Q07DX002 (ip), vehicle: saline with Tween-80): 80 % of control and 116 % of control
T/C [8]: 107 % of control and 184 % of control
T/C [3]: 103 % of control and 159 % of control

N[C@@H](Cc1ccc(N(CCCl)CCCl)cc1)C(=O)O
T/C (dose: 1.0 mg/kg/injection, schedule: Q07DX002 (ip), vehicle: saline): 51 % of control and 83 % of control
T/C (dose: 1.88 mg/kg/injection, schedule: Q07DX002 (ip), vehicle: Klucel (hydroxypropylcellulose) (HPC)): 66 % of control and 110 % of control
T/C (dose: 2.0 mg/kg/injection, schedule: Q07DX002 (ip), vehicle: saline): 58 % of control, 82 % of control, 153 % of control
T/C (dose: 2.5 mg/kg/injection, schedule: Q07DX002 (ip), vehicle: suspension in saline): 63 % of control, 71 % of control, 150 % of control
T/C [9]: 40 % of control, 65 % of control, 76 % of control
T/C (dose: 5.0 mg/kg/injection, schedule: Q07DX002 (ip), vehicle: suspension in saline): 53 % of control, 69 % of control, 82 % of control
T/C (dose: 8.0 mg/kg/injection, schedule: Q07DX002 (ip), vehicle: saline): 23 % of control, 47 % of control, 59 % of control
T/C (dose: 10.0 mg/kg/injection, schedule: Q07DX002 (ip), vehicle: suspension in saline): 19 % of control, 37 % of control, 51 % of control

O=NN(CCCl)C(=O)NC1OC(CO)C(O)C(O)C1O (centres undefined)
T/C (dose: 1.25 mg/kg/injection, schedule: Q07DX002 (ip), vehicle: saline): 68 % of control and 155 % of control
T/C [9]: 52 % of control and 94 % of control
T/C (dose: 5.0 mg/kg/injection, schedule: Q07DX002 (ip), vehicle: saline): 45 % of control and 103 % of control
T/C (dose: 10.0 mg/kg/injection, schedule: Q07DX002 (ip), vehicle: saline): 70 % of control and 110 % of control
T/C (dose: 20.0 mg/kg/injection, schedule: Q07DX002 (ip), vehicle: saline): 33 % of control and 62 % of control
